Results on 18 molecules are retold here after the supplement of paper PMC10369915.

B1: UNC13B_Y243_D238E_YF (peptide)
chain: ESMQSYDLDFP
B2: UFSP2_Y287_Y290H_YF (peptide)
chain: QGIFGYHHHMQ
B3: UBD_Y161 (peptide)
chain: LFLACYCIGGG
B4: UBA1_Y560_E557V (peptide)
chain: DTVRIYDDDFF
B5: TUBB8_Y340_L345F (peptide)
chain: DKNSSYFADWF
B6: TUBB8_Y281 (peptide)
chain: RGSQQYRALTV
B7: UCP2_Y79 (peptide)
chain: GPRSLYNGLVA
B8: TUBB3_Y208_R213C (peptide)
chain: DNEALYDICFC
B9: UGT3A1_Y123_C121G (peptide)
chain: GTQGSYLLSRK
B10: TWNK_Y508_YF (peptide)
chain: HAVFVYDICHV
B11: UMPS_Y432_G429R (peptide)
chain: NLRQQYNSPQE
B12: TUBB3_Y422_YF (peptide)
chain: DLVSEYQQFQD
B13: UFSP2_Y285_Y290H (peptide)
chain: VVQGIYGYHHH
B14: UFSP2_Y287_YF (peptide)
chain: QGIFGYHHFMQ
B15: TYRO3_Y828_A831T (peptide)
chain: GRDQPYSGTGD
B16: TYROBP_Y112_YF (peptide)
chain: TQRPFYKGGGG
B17: TYRO3_Y828_R824G (peptide)
chain: GGDQPYSGAGD
B18: UGGT2_Y823 (peptide)
chain: IATAIYSGDKI

This is one part of the list. No stated cut-off is given here; in the data, active = 3.2 or more and inactive = the rest. Only a few entries rise above the background.
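Further: displayed peptides selected on beads carrying the immobilized SH2 domain, with library peptides lacking any tyrosine serving as negative controls.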

The target in one assay is SHP2 C-SH2 domain E139D. The experiment in a line: enrichment score (SH2-bound / input frequency) (ratio); bacterial display of known human phosphotyrosine sites (pTyr-Var adds point mutants) read by sequencing; higher = stronger binding; tyrosines were phosphorylated by kinases first. To be noted: peptide library: pTyr-Var.
On to B1, for which the enrichment score was inactive: 0.527.

Take B2: the enrichment score is inactive: 2.93.

On to B3, for which the enrichment score was active: 3.9.

On to B4, for which the enrichment score was inactive: 0.718.

With B5, the enrichment score is inactive: 0.747.

Regarding B6, the enrichment score is inactive: 0.493.

On to B7, for which the enrichment score is inactive: 0.953.

Take B8: the enrichment score is inactive: 1.05.

In the case of B9, the enrichment score was inactive: 0.49.

B10: the enrichment score is inactive: 1.22.

Take B11: the enrichment score was inactive: 0.711.

With B12, the enrichment score was inactive: 0.623.

Regarding B13, the enrichment score is inactive: 2.3.

B14: the enrichment score was inactive: 2.11.

Turning to B15, the enrichment score was inactive: 0.662.

Take B16: the enrichment score is inactive: 0.806.

On to B17, for which the enrichment score is inactive: 0.525.

For B18, the enrichment score is inactive: 0.95.

Another assay addresses SHP2 C-SH2 domain wild-type. The assay is described as above. The conditions noted are these: peptide library: pTyr-Var.
As to B1, the enrichment score was inactive: 0.327.

In the case of B2, the enrichment score was inactive: 2.36.

Take B3: the enrichment score was active: 3.46.

As for B4, the enrichment score is inactive: 0.744.

Regarding B5, the enrichment score was inactive: 0.687.

Turning to B6, the enrichment score was inactive: 0.457.

Turning to B7, the enrichment score is inactive: 0.883.

For the molecule B8, the enrichment score is inactive: 1.24.

Regarding B9, the enrichment score was inactive: 0.487.

Regarding B10, the enrichment score is inactive: 1.41.

Take B11: the enrichment score was inactive: 0.558.

For the molecule B12, the enrichment score is inactive: 0.655.

In the case of B13, the enrichment score is inactive: 2.3.

B14: the enrichment score was inactive: 1.63.

Take B15: the enrichment score was inactive: 0.638.

As to B16, the enrichment score is inactive: 0.757.

With B17, the enrichment score is inactive: 0.371.

For the molecule B18, the enrichment score is inactive: 0.736.

The next assay deals with SHP2 N-SH2 domain L43F. The assay is described as above. The conditions noted are these: peptide library: pTyr-Var.
Turning to B1, the enrichment score was inactive: 0.436.

Consider B2, for which the enrichment score was inactive: 2.92.

As for B3, the enrichment score was active: 4.29.

Take B4: the enrichment score was inactive: 0.577.

Regarding B5, the enrichment score was inactive: 1.03.

B6: the enrichment score is inactive: 0.389.

Turning to B7, the enrichment score is inactive: 0.809.

In the case of B8, the enrichment score is inactive: 1.15.

B9: the enrichment score was inactive: 0.501.

As to B10, the enrichment score is inactive: 1.64.

In the case of B11, the enrichment score was inactive: 0.696.

For B12, the enrichment score is inactive: 0.784.

B13: the enrichment score is inactive: 1.93.

Consider B14, for which the enrichment score is inactive: 1.56.

As to B15, the enrichment score was inactive: 0.582.

B16: the enrichment score is inactive: 0.81.

With B17, the enrichment score was inactive: 0.43.

Regarding B18, the enrichment score is inactive: 0.88.

The target of a further assay is SHP2 N-SH2 domain T42A. The assay is described as above. To be noted: peptide library: pTyr-Var.
Turning to B1, the enrichment score was inactive: 0.404.

On to B2, for which the enrichment score was inactive: 2.4.

Regarding B3, the enrichment score was inactive: 3.17.

For B4, the enrichment score was inactive: 0.588.

For B5, the enrichment score was inactive: 0.756.

In the case of B6, the enrichment score was inactive: 0.35.

As for B7, the enrichment score was inactive: 0.768.

On to B8, for which the enrichment score is inactive: 1.03.

Turning to B9, the enrichment score was inactive: 0.538.

B10: the enrichment score is inactive: 0.873.

For the molecule B11, the enrichment score is inactive: 0.68.

B12: the enrichment score was inactive: 0.651.

On to B13, for which the enrichment score was inactive: 1.77.

For B14, the enrichment score is inactive: 1.67.

For the molecule B15, the enrichment score was inactive: 0.383.

Consider B16, for which the enrichment score is inactive: 0.676.

With B17, the enrichment score is inactive: 0.452.

Turning to B18, the enrichment score is inactive: 0.76.

For another assay, the target named is SHP2 N-SH2 domain T52S. The description is as above. To be noted: peptide library: pTyr-Var.
B1: the enrichment score was inactive: 0.402.

On to B2, for which the enrichment score was inactive: 2.83.

Regarding B3, the enrichment score was active: 3.64.

For B4, the enrichment score is inactive: 0.766.

As to B5, the enrichment score was inactive: 0.739.

Consider B6, for which the enrichment score was inactive: 0.456.

On to B7, for which the enrichment score is inactive: 0.735.

As for B8, the enrichment score was inactive: 1.13.

B9: the enrichment score is inactive: 0.345.

In the case of B10, the enrichment score was inactive: 1.55.

As to B11, the enrichment score is inactive: 0.614.

Turning to B12, the enrichment score is inactive: 0.665.

As for B13, the enrichment score is inactive: 2.46.

Take B14: the enrichment score was inactive: 1.68.

As for B15, the enrichment score is inactive: 0.499.

With B16, the enrichment score is inactive: 0.758.

For B17, the enrichment score is inactive: 0.389.

As for B18, the enrichment score is inactive: 0.914.

For a further assay, the target named is SHP2 N-SH2 domain wild-type. The assay is described as above. The conditions noted are these: peptide library: pTyr-Var.
In the case of B1, the enrichment score was inactive: 0.508.

Consider B2, for which the enrichment score is inactive: 2.3.

As to B3, the enrichment score is active: 3.48.

On to B4, for which the enrichment score was inactive: 0.721.

Consider B5, for which the enrichment score is inactive: 0.701.

B6: the enrichment score was inactive: 0.487.

For the molecule B7, the enrichment score was inactive: 0.877.

As for B8, the enrichment score was inactive: 1.28.

For the molecule B9, the enrichment score was inactive: 0.527.

With B10, the enrichment score was inactive: 2.

Turning to B11, the enrichment score is inactive: 0.849.

In the case of B12, the enrichment score was inactive: 0.642.

Take B13: the enrichment score is inactive: 2.08.

Regarding B14, the enrichment score was inactive: 1.42.

Consider B15, for which the enrichment score was inactive: 0.569.

For B16, the enrichment score is inactive: 0.746.

As to B17, the enrichment score was inactive: 0.43.

Turning to B18, the enrichment score is inactive: 1.18.
